This is one part of the list. Sequences were assembled here from the parent chain. Values near 0.05 are background.
B1: TEV protease; numbered along this chain (parent)
chain: MGESLFKGPRDYNPISSSICHLTNESDGHTTSLYGIGFGPFIITNKHLFRRNNGTLVVQSLHGVFKVKDTTTLQQHLVDGRDMIIIRMPKDFPPFPQKLKFREPQREERICLVTTNFQTKSMSSMVSDTSCTFPSGDGIFWKHWIQTKDGQCGSPLVSTRDGFIVGIHSASNFTNTNNYFTSVPKNFMELLTNQEAQQWVSGWRLNADSVLWGGHKVFMVKPEEPFQPVKEATQL

Variants of: B1
Assay: raw area under fraction-flipped curve 0-4 h after induction (AUC4h, not background-subtracted), DNA-recorder readout of cleavage of the substrate (dimensionless); higher = more cleavage of the substrate by the protease variant
Settings: temperature: 34 °C; time window: 0-4 h after rhamnose induction
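Further: Bxb1 expression induced with 0.2% (w/v) L-rhamnose at OD600 near 0.5, cultures sampled hourly, flipped fraction per protease–substrate barcode pair counted by paired-end Illumina sequencing.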

Row | Variant | area with substrate EALYFQS | area with substrate ECLYFQS | area with substrate EELYFQS | area with substrate EGLYFQS | area with substrate EHLYFQS | area with substrate EILYFQS | area with substrate EKLYFQS | area with substrate ESLYFQS | area with substrate EVLYFQS | area with substrate ELLYFQS | area with substrate EMLYFQS | area with substrate EPLYFQS | area with substrate EQLYFQS | area with substrate ERLYFQS | area with substrate EYLYFQS | area with substrate EDLYFQS | area with substrate EWLYFQS | area with substrate EFLYFQS | area with substrate ETLYFQS
1 | MGESLFKGPRDYNPISSSICHLTNESDGHTTSLYGIGFGPFIITNKHLFRRNNGTLVVQSLHGVFKVKDTTTLQQHLVDGRDMIIIRMPKDFPPFPQKLKFREPQREERICLVTTNFQTKSMSSMVSDTSCTFPSGDGIFWKHWIQTKDGQCGSPLVSTRDGFIVGIHSASNFTNTNNYFTSVPKNFMELLTNQEAQQWVSGWRLNADSGLWGGHKVFMVKPEEPFQPVKEATQL [V210G] | 0.0754 | 0.11 | 0.096 | 0.0844 | 0.141 | 0.0707 | 0.094 | 0.0934 | 0.0791 |  |  |  |  |  |  |  |  |  | 
2 | MGESLFKGPRDYNPISSSICHLTNESDGHTTSLYGIGFGPFIITNKHLFRRNNGTLVVQSLHGVFKVKDTTTLQQHLVDGRDMIIIRMPKDFPPFPQKLKFREPQREERICLVTTNFQTKSMSSMVSDTSCTFPSGDGIFWKHWIQTKDGQCGSPLVSTRDGFIVGIHSASNFTNTNNYFTSVPKNFMELLTNQEAQQWVSGWRLNADSKLWGGHKVFMVKPEEPFQPVKEATQL [V210K] | 0.07 | 0.094 | 0.0793 |  | 0.0737 | 0.0604 | 0.0977 | 0.0423 | 0.113 | 0.0587 | 0.0611 | 0.0982 | 0.0622 | 0.0657 | 0.0668 |  |  |  | 
3 | MGESLFKGPRDYNPISSSICHLTNESDGHTTSLYGIGFGPFIITNKHLFRRNNGTLVVQSLHGVFKVKDTTTLQQHLVDGRDMIIIRMPKDFPPFPQKLKFREPQREERICLVTTNFQTKSMSSMVSDTSCTFPSGDGIFWKHWIQTKDGQCGSPLVSTRDGFIVGIHSASNFTNTNNYFTSVPKNFMELLTNQEAQQWVSGWRLNADSVLMGGHKVFMVKPEEPFQPVKEATQL [W212M] | 0.18 | 0.142 | 0.0756 |  | 0.162 | 0.109 | 0.128 | 0.125 | 0.141 |  | 0.118 |  | 0.148 | 0.111 | 0.141 | 0.194 | 0.129 |  | 
4 | MGESLFKGPRDYNPISSSICHLTNESDGHTTSLYGIGFGPFIITNKHLFRRNNGTLVVQSLHGVFKVKDTTTLQQHLVDGRDMIIIRMPKDFPPFPQKLKFREPQREERICLVTTNFQTKSMSSMVSDTSCTFPSGDGIFWKHWIQTKDGQCGSPLVSTRDGFIVGIHSASNFTNTNNYFTSVPKNFMELLTNQEAQQWVSGWRLNADSVLWAGHKVFMVKPEEPFQPVKEATQL [G213A] | 0.079 | 0.116 | 0.0873 | 0.0556 | 0.0921 | 0.0667 | 0.0733 | 0.0763 | 0.0635 | 0.0712 | 0.0733 | 0.0618 | 0.0887 |  | 0.0759 | 0.121 |  | 0.0551 | 0.0884
5 | MGESLFKGPRDYNPISSSICHLTNESDGHTTSLYGIGFGPFIITNKHLFRRNNGTLVVQSLHGVFKVKDTTTLQQHLVDGRDMIIIRMPKDFPPFPQKLKFREPQREERICLVTTNFQTKSMSSMVSDTSCTFPSGDGIFWKHWIQTKDGQCGSPLVSTRDGFIVGIHSASNFTNTNNYFTSVPKNFMELLTNQEAQQWVSGWRLNADSVLWKGHKVFMVKPEEPFQPVKEATQL [G213K] | 0.0523 | 0.0793 | 0.046 |  | 0.0606 | 0.0606 | 0.0367 | 0.0473 | 0.0573 | 0.056 | 0.0588 | 0.0496 | 0.0635 | 0.0596 | 0.054 | 0.0727 |  | 0.0659 | 0.0738
6 | MGESLFKGPRDYNPISSSICHLTNESDGHTTSLYGIGFGPFIITNKHLFRRNNGTLVVQSLHGVFKVKDTTTLQQHLVDGRDMIIIRMPKDFPPFPQKLKFREPQREERICLVTTNFQTKSMSSMVSDTSCTFPSGDGIFWKHWIQTKDGQCGSPLVSTRDGFIVGIHSASNFTNTNNYFTSVPKNFMELLTNQEAQQWVSGWRLNADSVLWSGHKVFMVKPEEPFQPVKEATQL [G213S] | 0.0593 | 0.0682 | 0.0914 | 0.0509 |  |  | 0.0799 | 0.0771 | 0.0509 | 0.0915 |  | 0.0945 | 0.0775 | 0.115 |  |  | 0.0705 |  | 0.0703
7 | MGESLFKGPRDYNPISSSICHLTNESDGHTTSLYGIGFGPFIITNKHLFRRNNGTLVVQSLHGVFKVKDTTTLQQHLVDGRDMIIIRMPKDFPPFPQKLKFREPQREERICLVTTNFQTKSMSSMVSDTSCTFPSGDGIFWKHWIQTKDGQCGSPLVSTRDGFIVGIHSASNFTNTNNYFTSVPKNFMELLTNQEAQQWVSGWRLNADSVLWYGHKVFMVKPEEPFQPVKEATQL [G213Y] | 0.111 | 0.0585 | 0.064 |  | 0.0617 | 0.0593 | 0.0524 | 0.063 |  | 0.0813 | 0.0556 |  |  | 0.113 |  | 0.0693 |  | 0.0551 | 0.0551
8 | MGESLFKGPRDYNPISSSICHLTNESDGHTTSLYGIGFGPFIITNKHLFRRNNGTLVVQSLHGVFKVKDTTTLQQHLVDGRDMIIIRMPKDFPPFPQKLKFREPQREERICLVTTNFQTKSMSSMVSDTSCTFPSGDGIFWKHWIQTKDGQCGSPLVSTRDGFIVGIHSASNFTNTNNYFTSVPKNFMELLTNQEAQQWVSGWRLNADSVLWGKHKVFMVKPEEPFQPVKEATQL [G214K] | 0.0983 | 0.0733 |  |  | 0.141 | 0.054 | 0.0963 | 0.086 | 0.104 | 0.1 | 0.0621 | 0.0887 | 0.1 | 0.0769 | 0.118 | 0.126 | 0.0918 | 0.11 | 

— the supplement of paper PMC12217912
